From paper PMC12040169 (PLOS Biology, 2025)
The list shows a part of the results.

Tested on: T1, C. trachomatis L2/434/Bu expressing GFP (CTL2-GFP)
T1 construct: L2/434/Bu GFP intracellular growth in HeLa cells
Set-up: species or system HeLa; C. trachomatis total inclusion area by high-content imaging, normalised to DMSO
Conditions: total inclusion area; 28.5 h, 10 µM; inhibitor
Method in brief: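 Bulk GFP and resorufin signals were read first. Wells were then fixed, stained with Hoechst and imaged to detect GFP inclusions and host nuclei. MICs followed the previously described calculation.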

Row | Structure (SMILES) | % of control remaining
1 | CCc1nn(CC(=O)NC(C)(C)C)c(=O)c2cc3sc(C)cc3n12 [CBK284124] | 39.4601
2 | CCOC(=O)c1sc(-c2ccc3c(c2)OCO3)nc1O [CBK078565] | 118.818
3 | CCc1ccc2occ(CC(=O)Nc3ccc(C(=O)OC)cc3)c2c1 [CBK268318] | 72.5788
4 | COc1ccc(-c2cc(-c3ccccc3)nc(N/N=C/c3ccc(O)c(C)c3O)n2)cc1 [CBK261721] | 94.4544
5 | Cc1cc(C)c(S(=O)(=O)N2CCC(C(=O)Nc3ccc(C(N)=O)cc3)CC2)c(C)c1 [CBK266424] | 106.554
6 | N#Cc1sc2nc(-c3ccncc3)ccc2c1N [CBK288547] | 86.8187
7 | CC1CCN(S(=O)(=O)c2ccc(NC(=O)CN3CCOCC3)cc2)CC1 [CBK268339] | 127.064
8 | COc1ccc(CN[C@H]2[C@H](O)[C@@H](N3CCN(C(C)=O)CC3)[C@@H]3OC[C@H]2O3)cc1 [CBK288808] | 93.3642
9 | CC(=O)Nc1cccc(Oc2nccnc2-c2cc3ccccc3s2)c1 [CBK106784] | 87.3681
10 | Clc1ccc(-n2c(SCc3nc4ccccc4[nH]3)nnc2-c2ccncc2)cc1 [CBK267557] | 114.24
11 | CS(=O)(=O)Nc1cc2cccnc2nc1-c1ccccc1 [CBK085689] | 90.9934
12 | COC(=O)c1sc2cc(NC(=S)NNC(=O)c3ccoc3C)ccc2c1Cl [CBK266877] | 106.614
13 | CC(=O)N1CCC2(C/C=C/C[C@H]3CN(C(=O)C4CCC4)CC[C@H]3NC(=O)CNC2=O)CC1 [CBK292108] | 99.6168
14 | CCN(CCn1cccn1)c1nc2nonc2nc1N(C)C [CBK306630] | 73.2488
15 | O=C1CC(c2cc(F)ccc2F)c2c(-c3ccc(Cl)cc3)n[nH]c2N1 (stereo not shown) [CBK288000] | 81.2105
16 | COc1cccc2c1OCC[C@@H]2Oc1cncc(N2CCNCC2)n1 [CBK172305G] | 106.415
17 | Cc1ccc(CS(=O)(=O)NCc2ccccc2-n2ccnc2)cc1 [CBK281462] | 102.593
18 | CC(NC(=O)CSc1ncc(-c2ccccc2)nn1)c1ccccc1 (stereo not shown) [CBK267514] | 101.341
19 | COc1ccc2nc(Nc3nc4ccc(S(C)(=O)=O)cc4s3)sc2c1 [CBK287484] | 110.857
20 | OCCN(CCO)Cc1ccc(Cl)c(Cl)c1 [CBK261919] | 95.0843
21 | CCc1nccn1CCC(=O)N1CC(OCc2ccccc2F)C1 [CBK306597] | 34.4438
22 | COc1ccc(OCc2nc(C)cc(=O)n2CC(=O)NC(C)C)cc1 [CBK300525] | 88.0532
